About 260 (0.074%) of roughly 350,000 compounds were called active. The inconclusive results got no clear call from the source; some entries with a clear call stand among them for comparison. Calls follow the shape of the dose curve; as a rule, active = well fitted inhibition curve with a large enough effect; inconclusive = small, poorly fitted or top-dose-only effect; inactive = no such curve, though single readings can be large or run the other way. Potencies beside an inconclusive call are fits to weak or partial responses and may not hold up.
Biological target: Ferritin light chain (Equus caballus) (UniProt P02791)
Experiment: qHTS Assay for Identification of Novel General Anesthetics; also: nearly all actives have a fitted effect of over 20% in size
Details: apoferritin/1-aminoanthracene competitive binding, fluorescence; series mostly up to 77.5 µM
Summary of the method: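 Read-out: endpoint 1-AMA fluorescence, excitation 380 nm and emission 535 nm, after compounds sit 10 min at room temperature with 10 uM horse-spleen apoferritin in 50% saturated 1-AMA/PBS. Values come from four-parameter Hill fits.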
Potency is read from the fitted curve at half-maximal effect; tags tell the direction and shape of the fitted curve.

Sequence of UniProt P02791 (P02791 whole entry, looked up): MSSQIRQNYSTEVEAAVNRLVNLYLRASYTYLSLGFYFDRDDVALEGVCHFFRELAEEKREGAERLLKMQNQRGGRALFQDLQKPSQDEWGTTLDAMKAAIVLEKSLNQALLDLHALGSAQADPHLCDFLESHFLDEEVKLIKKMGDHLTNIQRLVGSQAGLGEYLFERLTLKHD

Potency, inactive:
O=C(NC(C(=O)N/N=C/c1cccc2ccccc12)c1n[nH]c(=O)c2ccccc12)c1ccccc1 (stereo not drawn)
CCN1C(=O)C(CC(=O)Nc2ccc(F)cc2)N(Cc2ccco2)C1=S (stereo not drawn)
COc1cccc(CNCCSc2nnnn2C)c1OCc1ccc(Cl)cc1
CCCn1c2ccccc2c2cnn(CC(=O)NC3CCCCC3)c(=O)c21
CN(C)CCCN1c2ccccc2Sc2ccccc21
COc1ccc(NC(=O)C2(c3ccc(NC(=O)c4ccc(OC)cc4)cc3)CCCC2)cc1
CCOc1cccc(C(=O)NC(=S)Nc2ccc3c(c2)OCCO3)c1
O=C(O)Cc1sc(NC2CCCCC2)nc1-c1ccc(Cl)cc1
CC1CCN(C(=O)c2cc(-c3ccc4c(c3)OCO4)on2)CC1
CC(C)(C)NC(=O)NC(=O)C[n+]1ccc(Cc2ccc([N+](=O)[O-])cc2)cc1
Cc1ccc(-c2cc(C(=O)NCc3cccs3)no2)cc1
CCCCOc1ccc(C(O)(CCC)CCN2CCOCC2)cc1 (stereo not drawn)
CCOC(=O)C1CCCN(C(=O)CNC(=O)c2nn(-c3ccc(OC)c(Cl)c3)c(=O)c3ccccc23)C1 (stereo not drawn)
COc1ccc(C(=O)O/N=C(\N)c2cccc(C)c2)cc1OC
O=C(/C=C/c1cccnc1)c1cccc(O)c1
O=C(c1sc2ccccc2c1Cl)N1CCN(c2ccccn2)CC1
O=C(C1CCCN(Cc2ccccc2Cl)C1)N1CCCCC1 (stereo not drawn)
COc1ccc(CCNc2ncnc3c2oc2ccccc23)cc1OC
CC(=O)C1=C(O)C(=O)N(c2cc(C(C)(C)C)on2)C1c1ccc(Br)cc1 (stereo not drawn)
CCc1cccc(C)c1NS(=O)(=O)c1ccc(-c2cc(C)no2)s1
Cc1cc[n+]2c3c(cccc13)CCC2
O=C(O)COc1ccc(OCCNC[C@H](O)COc2ccccc2)cc1
COc1ccc2c(c1)CCCC2NS(=O)(=O)OCC(Cl)(Cl)Cl (stereo not drawn)
O=C(Cn1c(=O)n(-c2ccccc2)c(=O)c2sc3ccccc3c21)NC1CCCC1
COc1ccc(CN2CCOCCOCCOCCOCC2)cc1
Cc1ccc(Nc2nc(Cl)nc(NC3CCCCC3)n2)cc1
CCOc1ccc(CCNC(=O)CCc2nnc3ccc(N4CCOCC4)nn23)cc1OCC
O=C(Nc1ccc(-c2nc3ccccc3o2)cc1)C1CCCO1 (stereo not drawn)
O=C(N/C(=C/C=C/c1ccccc1)C(=O)N1CCCCC1)c1ccc([N+](=O)[O-])cc1

Potency, inconclusive:
COc1ccc(OC)c(C2CC(=O)N3CN(c4ccc(C)c(Cl)c4)CSC3=C2C#N)c1 (stereo not drawn) 28.2 µM [inhibitor, single point]
C/C(=N/NC(=O)CSc1nc2ccccc2n1C)c1ccc(O)cc1 25.1 µM [inhibitor, partial curve]
O=C(O)CC/C(=N\NC(=O)CNC(=O)c1cccc(Cl)c1)c1ccccc1 12.6 µM [inhibitor, partial curve]
CN1C(=S)SC(/[N+]([O-])=C\c2ccco2)C1(C)C (stereo not drawn) 31.6 µM [inhibitor, single point]
O=C(NC(=S)Nc1ccc(N2CCOCC2)cc1)c1cccs1 25.1 µM [inhibitor, partial curve]
O=C(Nc1ccc(Nc2ccccc2)cc1)c1c(F)c(F)c(F)c(F)c1F 31.6 µM [inhibitor, partial curve]
O=C(NC1CCCCC1)Oc1ccccc1 25.1 µM [inhibitor, partial curve]
CN(CCCNC(=O)c1cn(C)c2ccc(S(=O)(=O)N(C)C)cc2c1=O)c1ccccc1 50.1 µM [inhibitor, single point]
Oc1ccccc1Cn1nnc2ccccc21 25.1 µM [inhibitor, partial curve]
CCOC(=O)c1oc2ccc(S(=O)(=O)n3nc(-c4cc(OCC)c(OCC)c(OCC)c4)cc3N)cc2c1C 12.6 µM [inhibitor, partial curve]
Cc1ccc(C(=O)N2CCCC(c3nc4c(nnn4Cc4ccccc4)c(=O)[nH]3)C2)cc1 (stereo not drawn) 44.7 µM [inhibitor, single point]
CC(SCc1ccccc1)C(=O)NN=C1CCN(C)CC1 (stereo not drawn) 44.7 µM [inhibitor, partial curve]
CCC(C)(C)C1CCC2(CC1)NC(=O)N(CC(=O)N(C)CC(=O)Nc1ccccc1C(F)(F)F)C2=O (stereo not drawn) 25.1 µM [inhibitor, partial curve]
COC(=O)c1sccc1NC(=O)CSc1nnnn1-c1ccccc1F 10 µM [inhibitor, partial curve]
COc1cccc(COC(=O)Nc2ccccc2F)c1 12.6 µM [inhibitor, partial curve]
CSc1ccc(CN(C)Cc2nc3cc(C(F)(F)F)ccc3c(=O)[nH]2)cc1 35.5 µM [inhibitor, partial curve]
Cc1ccc(C(=O)n2nc(-n3cccc3)c3c(C)cc(C)nc32)cc1 35.5 µM [inhibitor, single point]
Cc1cccc(-n2ncc3c(NCc4cccs4)ncnc32)c1 20 µM [inhibitor, partial curve]
COc1ccc(CNC(=O)C/C(C)=N/NC(=O)COc2cccc(C)c2)cc1 17.8 µM [inhibitor, partial curve]
O=C(NNC(=O)c1ccc(Oc2cc(Cl)cc(Cl)c2)o1)c1ccccc1 20 µM [inhibitor, single point]
O=C(CSc1nnc(-c2ccccc2)n1Cc1ccco1)Nc1ccc2c(c1)OCCO2 15.8 µM [inhibitor, partial curve]
O=C(CC12CC3CC(CC(C3)C1)C2)NCc1ccco1 35.5 µM [inhibitor, partial curve]
C=CCn1c(C)cc(C(=O)COC(=O)CNC(=O)c2ccccc2)c1C 35.5 µM [inhibitor, single point]
Cc1ccc(S(=O)(=O)/C(C#N)=C/c2c(N3CCOCC3)nc3ccccn3c2=O)cc1 10 µM [inhibitor, full curve, poor fit]
O=C(CN1CCOCC1)Nc1ccc(C2CCCCC2)cc1 17.8 µM [inhibitor, partial curve]
COc1cc([N+](=O)[O-])ccc1NC(=O)CCCOc1cccc(C)c1 39.8 µM [inhibitor, partial curve]
COc1ccccc1N1CCN(C(=O)c2cc3c(C)nc4ccccc4c3o2)CC1 28.2 µM [inhibitor, partial curve]
CCOc1ccc(Nc2nc(Cc3nnc(SCC(=O)c4ccc(C)c(C)c4)o3)cs2)cc1 11.2 µM [inhibitor, partial curve]
O=C(CC1(O)C(=O)N(Cc2ccccc2)c2ccc(Br)cc21)c1ccccc1 (stereo not drawn) 0.794 µM [inhibitor, full curve]
c1ccc2c(CN3CCSCC3)cccc2c1 44.7 µM [inhibitor, single point]
CCN(CC)S(=O)(=O)c1cccc(NC(=O)COC(=O)c2ccc(Br)o2)c1 20 µM [inhibitor, partial curve]
Cc1ccccc1Cn1c(=O)sc2ccccc2c1=O 7.94 µM [inhibitor, partial curve]
CC(=O)c1cc(C#N)c(N(C)Cc2ccccc2)nc1C 35.5 µM [inhibitor, partial curve]
CCN(c1cccc(C)c1)S(=O)(=O)c1cn(CC(=O)OC)c2ccc([N+](=O)[O-])cc12 25.1 µM [inhibitor, partial curve]
C[C@H](NC(=O)c1nc[nH]c1C(=O)NCc1ccc(CNC(=O)OC(C)(C)C)cc1)C(=O)OC(C)(C)C 3.16 µM [inhibitor, full curve]
CCN(CCNC(=O)CN(C)S(=O)(=O)c1cccc2nsnc12)c1ccccc1 22.4 µM [inhibitor, partial curve]
O=C1C(Cl)=C(N2CCCC2)C(=O)N1c1ccccc1F 35.5 µM [inhibitor, partial curve]
COc1ccc(-c2ccc(SCC(=O)c3cccs3)nn2)cc1OC 39.8 µM [inhibitor, single point]
O=[N+]([O-])c1cccc(NC(=S)N2CCc3ccccc32)c1 22.4 µM [inhibitor, single point]
Cc1ccc(S(=O)(=O)/N=C(\N)Nc2nc(C)c3cc(C)ccc3n2)cc1 14.1 µM [inhibitor, partial curve]
CCc1ccc(NC(=O)CSc2ccccn2)cc1 25.1 µM [inhibitor, partial curve]
COc1ccccc1NC(=O)c1ccc(-c2ccccc2[N+](=O)[O-])o1 35.5 µM [inhibitor, partial curve]
Nc1[nH]n2c(=O)c3c(nc2c1N=Nc1ccccc1)CCCC3 3.55 µM [inhibitor, full curve]
Cc1ccc(OCC(=O)Nc2ccccc2Sc2ccccc2)c([N+](=O)[O-])n1 35.5 µM [inhibitor, single point]

— PubChem BioAssay AID485281 (National Center for Advancing Translational Sciences (NCATS), 2010)
